Test results as given in the supplement of paper PMC3334620.
Over roughly 33,000 sequences, “E-score (-0.5 to 0.5)” has its median near -0.012; the highest 2% begin near 0.27. Some of the results follow.

These sequences were tested against T1, Vhr1 (UniProt P40522) (assay: PBM E-score (8-mer binding enrichment) (E-score (-0.5 to 0.5)); higher = stronger / more preferred TF binding; most listed sequences are background and not binding sites). Conditions: protein concentration: 200 nM; construct: GST-full length.
T1 sequence: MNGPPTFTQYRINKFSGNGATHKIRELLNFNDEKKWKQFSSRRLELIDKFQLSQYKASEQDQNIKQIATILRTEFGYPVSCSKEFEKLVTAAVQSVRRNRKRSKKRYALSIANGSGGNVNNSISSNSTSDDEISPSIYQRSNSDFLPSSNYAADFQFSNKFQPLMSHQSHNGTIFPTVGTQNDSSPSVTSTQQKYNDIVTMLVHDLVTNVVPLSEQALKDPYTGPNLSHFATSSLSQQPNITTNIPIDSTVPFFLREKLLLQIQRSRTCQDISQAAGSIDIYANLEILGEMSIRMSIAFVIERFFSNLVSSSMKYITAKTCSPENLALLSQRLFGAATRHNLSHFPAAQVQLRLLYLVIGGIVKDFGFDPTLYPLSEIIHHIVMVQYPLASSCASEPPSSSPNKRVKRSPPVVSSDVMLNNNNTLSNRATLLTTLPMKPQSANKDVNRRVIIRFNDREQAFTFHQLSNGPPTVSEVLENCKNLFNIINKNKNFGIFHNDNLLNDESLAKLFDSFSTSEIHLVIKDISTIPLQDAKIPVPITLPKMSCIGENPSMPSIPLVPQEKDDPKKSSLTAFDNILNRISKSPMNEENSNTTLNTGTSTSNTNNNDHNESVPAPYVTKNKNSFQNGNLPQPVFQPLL
How it was run: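 E-scores (a modified Wilcoxon-Mann-Whitney statistic) were assigned by the Universal PBM Analysis Suite to every ungapped eight-base word pooled with its reverse complement. The input came from universal all-10-mer Agilent arrays made double-stranded by primer extension and probed with GST-tagged yeast transcription factors at about 100-200 nM. Fluorescent anti-GST detected bound protein, and masliner normalised the scans.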

Sequence | PBM E-score
ATTTGCAG | -0.172
GCGTTCCA | -0.169
CAGACGCC | -0.172
GCGCGGGA | 0.167
GCGCCACC | 0.02
ATTTCATC | 0.043
CAGGAATC | 0.313
TATAATGA | 0.145
AGAACCAG | -0.16
GGTTCAAA | 0.0277
ATTAAGTG | 0.00765
CGCACCAG | 0.302
CGTATCCC | -0.158
GTTTTCTA | -0.185
ATAATCCG | 0.00174
GCCCTGTA | -0.0133
AGTACTTC | 0.116
GAAAAAGA | -0.204
GCAAAAAA | -0.195
ATTCCGGA | 0.174
GCGTTACA | -0.057
ATCTGTGG | 0.0183

Sequence | PBM E-score
GCAGCAGA | -0.00414
ACACCGCG | -0.0178
CCTGTGAG | 0.106
CCTTATCA | -0.198
GAACCGGC | -0.0873
ACATTCTC | 0.0153
ACCCAGAC | 0.104
CGTGCGGA | 0.00699
AATCCGTG | -0.05
CAGGAGAA | 0.00491
GGTACACA | 0.204
CACAGATG | -0.069
CTAGGTTC | -0.0959
CAGGGCAG | 0.011
AGTATTCG | -0.0178
CAAAGTTC | -0.0789
CTTATTAA | -0.0187
TACTAACA | 0.145
CGGCGGCC | -0.142
CATTGTGC | -0.0223
GCCCATCC | 0.101
AATCGGCT | 0.0852

Sequence | PBM E-score
AAACATCG | 0.0376
CCTAAATC | 0.00215
CATAAAAA | -0.15
GGATTCAA | -0.0312
CAGCATAA | 0.0735
ACATTGCT | -0.0486
TGGGGAAA | 0.0155
CGGTCCTA | -0.246
AATTCTAA | -0.0726
CTTGTTGA | 0.107
AGTAGACT | -0.0463
GAATACTA | 0.178
ATAGGTTA | 0.0642
GACGTTCC | -0.294
TAGCCACA | 0.023
TCTTCCAA | -0.19
GACGAGGC | -0.11
AACACCTT | -0.0237
ATTCCCCG | 0.0917
CATTTGAG | -0.0627
CACTGCTG | -0.0508
AATTTCAT | -0.137

Sequence | PBM E-score
CGGGACCA | -0.11
AAAAAGCG | -0.121
ACCGACAA | -0.034
GGGGCTCA | -0.0835
CACTTACA | 0.0795
CCCTATCC | -0.0379
AAAGAAAT | -0.254
GCTGTCGA | -0.115
CAACAGTA | 0.12
AATATTCA | 0.157
AAGTCCCA | -0.221
CTGAGTGA | 0.215
AGTAGATC | -0.0434
GAGTTCCC | -0.109
AGAGTATA | -0.093
ATGAGCCG | -0.00802
ACCTTCTG | 0.167
AGAGGAAT | 0.016
GATGCGTA | 0.0279
CAGTTCTC | -0.208
CAAGCTTG | -0.21
ATGCCCTG | -0.0849

Sequence | PBM E-score
AGACTTTC | -0.378
CTATCTCA | 0.0772
AAACCCCC | -0.198
ACATAATC | 0.25
GTGTACTA | 0.119
GTCGGAAA | 0.022
GCGCCGCC | 0.156
ATTCTACG | 0.109
GTAAGGTA | -0.04
ACAGCGCC | 0.057
AAGACCTA | 0.00767
ACAGGTCA | 0.00796
CTCGGGTA | -0.00897
CGCCCGTC | 0.216
AATACGGG | -0.047
ACCTTGGG | 0.0306
AGGTGGCG | -0.0512
TGTGTGAA | 0.148
ACTTTCCG | -0.256
AGCAATAC | -0.0388
ATCAATTA | 0.137
